Source: the supplement of paper PMC10126150
Sequences with one replicate were seen in a single cluster, so their values are uncertain.

System: ATP
Assay: switch fluorescence ratio, 500 uM ATP over buffer (Cy3 cluster intensity, sum of 5 cycles each) (fold (ratio)); higher = stronger signal-on switching upon ATP binding; sequences stand for … in TCGTCGGCAGCGTCAGATGTGTATAAGAGACAGTTTTTTTTTTTTTTTTTTTTTTTTT…TC
Conditions: aptamer strand: ATP DNA aptamer (quencher-CACCTGGGGGAGTATTGCGGAGGAAGG + anchor), 100 nM annealed; ATP concentration: 500 uM; one replicate
Method in brief: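 The quencher-labelled ATP aptamer, at 100 nM, was annealed to Cy3-labelled switching-strand clusters on a modified Illumina MiSeq flow-cell. The clusters were imaged in selection buffer, then after 15 min with 500 uM ATP at 22 °C, and this buffer/ATP cycle ran five times with NaOH stripping and re-annealing between runs. Per-cluster fluorescence ratios, summed target-cycle over summed buffer-cycle Cy3 intensity, were averaged per switch-domain sequence. Clusters outside 100-1000 RFU were excluded.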
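Also: ATP exposure 15 min at 22 °C before imaging.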

Sequence | switch fluorescence ratio
GTACCTAAAA | 0.941
ACAGTCATTT | 1.03
GATGTGTCGT | 1
TTAAACATAC | 1.3
AGCTTTAGCG | 0.981
GGGCAGGCCT | 1.02
TCAGAGGGTG | 1.09
AAGTATTAGG | 0.99
CAGTCTCAAT | 1.02
ATGGTAC | 1.24
TGGACTATGG | 0.994
GTAGGCATCG | 1
CCGTATTAAA | 1
GCGTAGTGCG | 1.02
GGCAAAAATA | 0.994
GTTATCAGTG | 0.964
GTCGATTTGT | 0.998
ATACTTGTCA | 0.961
TACGACGTG | 1.02
GTTTAGGCAC | 1.01
AGTCAGCATG | 1.03
AATATATGCT | 0.97
CAGTCTGCGG | 0.973

Sequence | switch fluorescence ratio
GCAGGGGTAA | 0.985
TCACCTACGA | 1.46
AGAATACGA | 1.05
GATTTGTAGA | 1.02
AGTCCTTCGA | 1.03
ATTCCAATCC | 1.06
CACCTTATGC | 1.05
TCCACGTTGC | 1.13
TGTCGAATCG | 1.06
GGTTTCAATC | 1
GCTTGCTATC | 1.04
TGGGGCGAAT | 1.02
CAACCGTGGG | 0.971
TCCACCGACG | 1.5
GTATTAAGTG | 0.992
CTTAGCGAAG | 0.995
ATCAGTACGG | 1.04
TAGCGCAACT | 1.14
ACTCTACGTG | 1.26
GCAATGACAC | 2.49
TCGACCGACT | 1.05
CAGTCCGGTA | 1.03
TACATGTTAA | 1.03

Sequence | switch fluorescence ratio
TCTTAAAGAG | 1.01
CCACGGGCTT | 1.06
GTTTGACCGT | 0.948
AGCCGACTAC | 1.25
TTGTTGGCTT | 0.946
ATGAGCAGTG | 0.99
CTGTCGTCGT | 1.02
AGGATCAGTT | 0.974
AAGACGAAGG | 0.995
AAGAGGCCAC | 0.924
GAATCCAAGC | 0.96
AGAGATGCGA | 0.977
CGCTAACAAT | 1.05
CAGCGATGCG | 1.16
GGTGTAAATC | 1.01
ACGGTGACGA | 1.04
CGTAATGTCA | 0.986
TAACGTCCCG | 1.04
AGAATACATA | 1.05
TAAGGGTGT | 1.06
ACAAGTGTAG | 0.996
GATCACGTGT | 1.02
CGACGGTGT | 1.01

Sequence | switch fluorescence ratio
CGCAGCTGAG | 1.19
AGCGCTCTGT | 1.05
AAAAACGTAC | 1.81
TTCCTATCCG | 1.08
GAAGAAGTGC | 1.47
GTAAAAAT | 1
GTGCTTGTTG | 0.994
ATCGAACTCT | 1.01
ATCAAAGTAA | 1
GCCAAGCCCA | 0.968
CCAAGTACGC | 1.51
AAGCTCAGAA | 0.953
ACTTAGTCTT | 1.06
GCCCGCTGTT | 0.998
CGCAGATAGA | 1.03
GGACGGGACA | 1.1
ACGATAAAGT | 1.47
GTACGTCCGG | 0.972
AAGGGCGGCA | 0.997
TATCGAACGG | 1.02
CGATAATTAA | 0.988
CGTGTATTGC | 1.03
GGGCGAAGAT | 1

Sequence | switch fluorescence ratio
GCTGTACCGA | 1.04
TTGGTCATGT | 0.988
CGAATCGGTT | 0.964
CTGAACAAA | 1.02
ATAAAAAATT | 1.01
TAATTCAGTC | 1.07
CATTGGATAC | 1.26
GGGTGCGGT | 1.01
CGACATCAGA | 1.02
CTAGAGTTGG | 1.05
CATAGGTCCC | 0.975
AATAGTTCCC | 1.02
GACTCAGAAT | 1.06
TAAGCAAAGC | 0.996
CGGTGAGTGC | 1.03
GGTCACGACA | 1.05
ACCCGCCGCT | 1.29
ATCATATGAC | 1
CAATATCTGT | 0.961
CTGGGATTTC | 0.98
AATTTTAACC | 1.07
GGTGCAGAGT | 0.971
ACGCTATACA | 3.58

Sequence | switch fluorescence ratio
AGCTTTAATC | 1.05
TTAAATTGAG | 1.01
TGCATTTCGA | 0.977
GCACGTCGCC | 1.11
GTTAGGGGGC | 1.02
GGTGGCAAGT | 1.02
CGTTCAACTT | 0.997
CTAATTCTCG | 1.06
CCAGGGGGCC | 1.08
GGTGTCTTCG | 1
GGGACCTCAA | 0.98
ATGATCTCAG | 0.989
CTGGTGCGAA | 1.06
CTATGTCTGC | 0.985
TGATTGTAA | 1.02
GCAGTTGGCT | 0.924
AGGGTGGCAC | 0.955
AGGCATTCTG | 1.04
AGAAGTACTG | 1.07
TTGGTCGGAA | 0.977
CTAATTACGA | 1
CTATGACGCC | 0.924
GCAGCCAGAG | 1.11

Sequence | switch fluorescence ratio
TTAAGATGGA | 0.976
TTGCCGAGCT | 1.06
GAGTCCTCAT | 1
CATTGTTGGA | 0.982
TGCTTTCCCA | 0.988
ACCAAGGGAA | 1.02
TAATTAGACA | 1.09
ATAAAAACAA | 1.07
ACGTTAAAAG | 1.04
GCGAATTGTG | 1.04
GAGTGGTACG | 0.966
TGCGCCACGT | 1.03
GCCTGAGCTT | 1.03
ATGCATTGG | 1.02
TCGCCAAAGT | 1.04
AGCCAGATAG | 0.973
CGTCAGTCCT | 1.03
AACATCGTGC | 1
AACCGGGCTT | 1.02
